# Source: PubChem BioAssay (Tox21)
# Several values for one entry are separate records, joined by “and”; a condition that tells them apart may be missing. Equal entries are not always repeated. The inconclusive results got no clear call from the source; some entries with a clear call stand among them for comparison. For some assays here: A potency beside an inconclusive call is a rough fit, not a confirmed value. Activity calls are given as the source filed them. Unless noted, calls follow the shape of the dose curve; as a rule, active = well fitted curve in the direction sought with a large enough effect in the repeat runs; inconclusive = weak or mixed curves; inactive = no such curve, though single readings can be large; an effect the other way counts as inactive or inconclusive.
# Legend:
# [1] = biological target: Glucocorticoid receptor (Homo sapiens) (UniProt P04150); assay: qHTS assay to identify small molecule antagonists of the glucocorticoid receptor (GR) signaling pathway (AID 720692; active = well fitted inhibition curve with a large enough effect in the signal ratio in the repeat runs, not every such curve was filed as active; inconclusive = weak or mixed curves, or effect the other way; inactive = no such curve, though single readings can be large or run the other way; the % refers to the signal ratio; also: % is scaled to controls: 0 for no effect and ±100 for the full control effect); conditions: GR-bla HeLa, beta-lactamase FRET ratio, dexamethasone-stimulated, 18 h; activity change, negative = inhibition: at 58.5 µM (top of the series) unless noted
# In short: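 Quantitative HTS in antagonist format: HeLa cells expressing endogenous GR and a stably integrated GRE-bla reporter, stimulated with 5 nM dexamethasone (final) alongside test compounds for 18 h.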
# [2] = biological target: Peroxisome proliferator-activated receptor gamma (Homo sapiens) (UniProt P37231); assay: qHTS assay to identify small molecule antagonists of the peroxisome proliferator-activated receptor gamma (PPARg) signaling pathway (AID 743191; calls by dose curve; also: nearly all actives have a fitted effect of over 30% in size; also: potency is read from the fitted curve at half-maximal effect; as to ratio activity, negative = inhibition: % is scaled to controls: 0 for no effect and ±100 for the full control effect); conditions: HEK293H PPARg-UAS-bla, beta-lactamase ratio, antagonist, 17 h; ratio activity, negative = inhibition: at 62.6 µM (top of the series) unless noted
# In short: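 GeneBLAzer PPARg UAS-bla HEK293H cells, 5 h post-plating, exposed to compounds 17 h at 37C. LiveBLAzer B/G FRET substrate added for 1 h at room temperature; beta-lactamase reporter read by fluorescence intensity.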
# [3] = qHTS assay to identify small molecule agonists of the RXR signaling pathway - cell viability counter screen (AID 1159529); also: nearly all actives have a fitted effect of over 50% in size; also: potency is read from the fitted curve at half-maximal effect
# In short: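 Compounds dissolved in DMSO were pinned onto HEK 293T cells carrying a beta-lactamase reporter under RXR-alpha control and incubated 16 hr. Cytotoxicity was then quantified by CellTiter-Glo luminescence.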
# [4] = biological target: Estrogen receptor beta (Homo sapiens) (UniProt Q92731); assay: qHTS assay to identify small molecule antagonists of the estrogen receptor beta (ER-beta) signaling pathway (AID 1259378; active = well fitted inhibition curve with a large enough effect in the signal ratio in the repeat runs, not every such curve was filed as active; inconclusive = weak or mixed curves, or effect the other way; inactive = no such curve, though single readings can be large or run the other way; the % refers to the signal ratio; also: % is scaled to controls: 0 for no effect and ±100 for the full control effect); conditions: ER-beta-UAS-bla HEK293T, beta-lactamase FRET ratio, 16 h; activity, negative = inhibition: at 92.4 µM (top of the series) unless noted
# In short: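 ER-beta-UAS-bla HEK293T cells in 2% charcoal-stripped FBS medium treated with compound plus 1nM final 17-beta-estradiol for 16 hr at 37C. Beta-lactamase reporter read by FRET substrate fluorescence after 2 hours at room temperature.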
# [5] = biological target: Cytochrome P450 2C19 (Homo sapiens) (UniProt P33261); assay: Cytochrome P450 Family 2 Subfamily C Member 19 (CYP2C19) small molecule antagonists: luciferase reporter qHTS assay (AID 1671197); also: nearly all actives have a fitted effect of over 65% in size; also: potency is read from the fitted curve at half-maximal effect
# In short: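 Luminescent readout of CYP2C19 activity: luciferin product detected 20 min after adding detection reagent. Before that, compound and enzyme-substrate mix preincubated 10 min at room temperature; NADPH-regenerating system started a 1 h, 37C reaction. Ketoconazole as positive control.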
# [6] = qHTS assay to identify small molecule antagonists of the thyroid receptor (TR) signaling pathway - cell viability counter screen (AID 743064); conditions: GH3.TRE-Luc viability, CellTiter-Fluor, 24 h; activity change, negative = cytotoxic: at 70.3 µM (top of the series) unless noted; also: nearly all actives have a fitted effect of over 50% in size; also: potency is read from the fitted curve at half-maximal effect
# In short: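 CellTiter-Fluor readout, 30 min at 37 °C/5% CO2, following 23.5 h incubation of GH3.TRE-Luc cells with test compound and 1 nM T3 (final).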
# [7] = qHTS assay for small molecule disruptors of the mitochondrial membrane potential (AID 720635); conditions: HepG2 mitochondrial membrane potential, Mito-MPS dye ratio; also: potency is read from the fitted curve at half-maximal effect
# In short: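 HepG2 cells exposed to compound 1 hr at 37C, then Mito-MPS dye 30 min. Ratio read of aggregate (540/590 nm) versus monomer (490/535 nm) fluorescence.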
# [8] = qHTS assay to identify small molecule agonists of the progesterone receptor (PR) signaling pathway - cell viability counter screen (AID 1346799; calls by dose curve; also: nearly all actives have a fitted effect of over 45% in size; also: potency is read from the fitted curve at half-maximal effect)
# In short: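 Multiplexed viability read: CellTiter-Glo luminescence, 30 min RT, following LiveBLAzer FRET measurement on PR-UAS-bla HEK293T cells exposed to compounds 16 hr.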
# [9] = biological target: Vitamin D3 receptor (Homo sapiens) (UniProt P11473); assay: qHTS assay to identify small molecule antagonists of the vitamin D receptor (VDR) signaling pathway (AID 743223; active = well fitted inhibition curve with a large enough effect in the signal ratio in the repeat runs, not every such curve was filed as active; inconclusive = weak or mixed curves, or effect the other way; inactive = no such curve, though single readings can be large or run the other way; the % refers to the signal ratio; also: potency is read from the fitted curve at half-maximal effect); conditions: VDR-UAS-bla HEK293T, beta-lactamase FRET ratio, 16 h; activity change, negative = inhibition: at 61 µM (top of the series) unless noted
# In short: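 Inhibition of agonist-driven VDR signalling is scored in VDR-bla cells: 3 nM final 1alpha,25-dihydroxyvitamin D3 plus compound, 16 h at 37C, then beta-lactamase detection by FRET substrate fluorescence after 2 h.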
# [10] = qHTS assay to identify small molecule antagonists of the progesterone receptor (PR) signaling pathway - cell viability counter screen (AID 1346798); also: nearly all actives have a fitted effect of over 50% in size; also: potency is read from the fitted curve at half-maximal effect
# In short: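 In the same plates used for the beta-lactamase readout, cell viability of compound- and R5020-treated PR-UAS-bla HEK293T cells (16 hr, 37C) was assessed by CellTiter-Glo luminescence.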
# [11] = biological target: Cytochrome P450 2C9 (Homo sapiens) (UniProt P11712); assay: Cytochrome P450 Family 2 Subfamily C Member 9 (CYP2C9) small molecule antagonists: luciferase reporter qHTS assay (AID 1671198); also: nearly all actives have a fitted effect of over 50% in size; also: potency is read from the fitted curve at half-maximal effect
# In short: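 P450-Glo proluciferin substrate with CYP2C9 enzyme; 10 min RT preincubation, then NADPH regeneration 1 h at 37C; luciferin detection reagent 20 min RT, luminescence in relative luminescence units.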
# [12] = qHTS assay for small molecule agonists of the antioxidant response element (ARE) signaling pathway (AID 743202; active = well fitted activation curve with a large enough effect in the signal ratio in the repeat runs, not every such curve was filed as active; inconclusive = weak or mixed curves, or effect the other way; inactive = no such curve, though single readings can be large or run the other way; the % refers to the signal ratio; also: potency is read from the fitted curve at half-maximal effect); conditions: HepG2 ARE-bla reporter, beta-lactamase FRET, 16 h; activation: at 73.3 µM (top of the series) unless noted
# In short: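 HepG2 ARE-bla reporter line, 2,000 cells/well; 5 h preincubation 37 C/5% CO2; compound (DMSO) 16 h 37 C; B/G FRET substrate 2 h RT; fluorescence intensity.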
# [13] = biological target: Cytochrome P450 2D6 (Homo sapiens) (UniProt P10635); assay: Cytochrome P450 Family 2 Subfamily D Member 6 (CYP2D6) small molecule antagonists: luciferase reporter qHTS assay (AID 1671196)
# In short: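 Test chemicals meet CYP2D6 plus proluciferin substrate (10 min, RT); NADPH regenerating solution then drives turnover for 1 h. Detection reagent halts the reaction; luminescence measured after 20 min.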
# [14] = qHTS assay for identifying genotoxic compounds that show differential cytotoxicity against isogenic chicken DT40 cell lines with known DNA damage response pathways - wild type cell line (AID 743012); conditions: DT40 wild type chicken cells viability, CellTiter-Glo, 40 h; activity change, negative = cytotoxicity: at 68.4 µM (top of the series) unless noted; also: nearly all actives have a fitted effect of over 60% in size; also: potency is read from the fitted curve at half-maximal effect
# In short: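 Luminescent ATP viability signal (CellTiter-Glo, 30 min RT) recorded after wild type DT40 cells were incubated with compounds for 40 h at 37 C/5% CO2.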
# [15] = qHTS assay to identify small molecule antagonists of the retinoid acid receptor (RAR) signaling pathway - cell viability counter screen (AID 1159551); also: nearly all actives have a fitted effect of over 35% in size; also: potency is read from the fitted curve at half-maximal effect
# In short: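 ATP-based viability, C3RL4 cells, 6 h at 37 C with 1 uM final retinol co-added after compound; luminescence read 30 min post CellTiter-Glo, RT.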
# [16] = qHTS assay to identify small molecule antagonists of the sonic hedgehog signaling (Shh) pathway (AID 1259369; calls by dose curve; also: nearly all actives have a fitted effect of over 45% in size; also: potency is read from the fitted curve at half-maximal effect)
# In short: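 Stable Gli1-Luc reporter NIH/3T3 clone; quantitative HTS in stimulated mode with conditioned medium. Luminescence measured after 24hr compound treatment at 37 C.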
# [17] = biological target: Progesterone receptor (Homo sapiens) (UniProt P06401); assay: qHTS assay to identify small molecule antagonists of the progesterone receptor (PR) signaling pathway (AID 1346795; active = well fitted inhibition curve with a large enough effect in the signal ratio in the repeat runs, not every such curve was filed as active; inconclusive = weak or mixed curves; the % refers to the signal ratio; also: % is scaled to controls: 0 for no effect and ±100 for the full control effect); conditions: PR-UAS-bla HEK293T, beta-lactamase FRET ratio, 16 h; activity change, negative = inhibition: at 92.4 µM (top of the series) unless noted
# In short: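 Stimulus R5020 at 1 nM final; cells HEK293T PR-UAS-bla; medium with 2% charcoal-stripped FBS; compound exposure 16 hr at 37C, 5% CO2; detection by FRET beta-lactamase substrate, 2 hr, room temperature.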
# [18] = biological target: Cytochrome P450 1A2 (Homo sapiens) (UniProt P05177); assay: Cytochrome P450 Family 1 Subfamily A Member 2 (CYP1A2) small molecule antagonists: luciferase reporter qHTS assay (AID 1671199); also: nearly all actives have a fitted effect of over 50% in size; also: potency is read from the fitted curve at half-maximal effect
# In short: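 Steps: enzyme-substrate mix dispensed; test compounds and furafylline control pinned in; 10 min room temperature; NADPH regeneration solution added, 1 h; reaction stopped with luciferin detection reagent; luminescence read after 20 min.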
# [19] = ratio activity, negative = MMP loss: at 83.2 µM (top of the series) unless noted
# Tags tell the direction and shape of the fitted curve or compound fluorescence and quenching.
# Chain of UniProt P05177 (P05177 whole entry, looked up): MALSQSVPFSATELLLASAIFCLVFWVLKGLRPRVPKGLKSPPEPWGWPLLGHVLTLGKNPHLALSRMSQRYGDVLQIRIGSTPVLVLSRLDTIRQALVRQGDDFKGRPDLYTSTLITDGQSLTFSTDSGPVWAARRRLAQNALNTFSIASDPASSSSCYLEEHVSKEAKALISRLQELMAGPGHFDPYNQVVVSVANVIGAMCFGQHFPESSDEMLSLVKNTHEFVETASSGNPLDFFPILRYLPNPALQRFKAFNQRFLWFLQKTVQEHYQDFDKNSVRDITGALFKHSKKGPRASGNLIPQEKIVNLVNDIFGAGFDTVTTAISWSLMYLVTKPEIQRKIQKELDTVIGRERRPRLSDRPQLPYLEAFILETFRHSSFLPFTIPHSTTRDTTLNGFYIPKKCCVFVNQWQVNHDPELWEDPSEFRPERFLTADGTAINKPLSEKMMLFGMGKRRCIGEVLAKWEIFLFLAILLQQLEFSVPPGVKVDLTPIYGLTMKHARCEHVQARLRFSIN
# Chain of UniProt P04150 (P04150 whole entry, looked up): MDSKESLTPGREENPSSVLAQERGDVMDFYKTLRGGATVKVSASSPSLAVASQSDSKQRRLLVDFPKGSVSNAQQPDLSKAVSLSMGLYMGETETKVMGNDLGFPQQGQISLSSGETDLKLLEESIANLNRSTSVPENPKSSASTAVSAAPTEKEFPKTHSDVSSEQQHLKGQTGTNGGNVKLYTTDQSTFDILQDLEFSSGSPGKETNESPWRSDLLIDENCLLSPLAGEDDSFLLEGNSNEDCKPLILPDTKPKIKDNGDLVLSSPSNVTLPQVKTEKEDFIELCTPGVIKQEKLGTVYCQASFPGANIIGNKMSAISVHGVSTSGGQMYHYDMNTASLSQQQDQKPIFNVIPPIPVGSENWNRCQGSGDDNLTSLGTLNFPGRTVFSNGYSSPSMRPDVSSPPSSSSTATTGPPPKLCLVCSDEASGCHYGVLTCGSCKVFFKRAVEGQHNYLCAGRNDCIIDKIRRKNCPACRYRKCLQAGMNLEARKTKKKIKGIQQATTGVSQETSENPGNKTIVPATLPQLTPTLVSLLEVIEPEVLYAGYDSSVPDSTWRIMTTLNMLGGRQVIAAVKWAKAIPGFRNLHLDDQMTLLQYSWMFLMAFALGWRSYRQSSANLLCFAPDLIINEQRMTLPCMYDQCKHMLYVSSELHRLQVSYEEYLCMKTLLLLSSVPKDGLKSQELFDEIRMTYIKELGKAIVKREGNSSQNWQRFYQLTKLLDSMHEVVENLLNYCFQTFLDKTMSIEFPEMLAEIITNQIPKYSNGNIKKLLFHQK
# Chain of UniProt P11712 (P11712 whole entry, looked up): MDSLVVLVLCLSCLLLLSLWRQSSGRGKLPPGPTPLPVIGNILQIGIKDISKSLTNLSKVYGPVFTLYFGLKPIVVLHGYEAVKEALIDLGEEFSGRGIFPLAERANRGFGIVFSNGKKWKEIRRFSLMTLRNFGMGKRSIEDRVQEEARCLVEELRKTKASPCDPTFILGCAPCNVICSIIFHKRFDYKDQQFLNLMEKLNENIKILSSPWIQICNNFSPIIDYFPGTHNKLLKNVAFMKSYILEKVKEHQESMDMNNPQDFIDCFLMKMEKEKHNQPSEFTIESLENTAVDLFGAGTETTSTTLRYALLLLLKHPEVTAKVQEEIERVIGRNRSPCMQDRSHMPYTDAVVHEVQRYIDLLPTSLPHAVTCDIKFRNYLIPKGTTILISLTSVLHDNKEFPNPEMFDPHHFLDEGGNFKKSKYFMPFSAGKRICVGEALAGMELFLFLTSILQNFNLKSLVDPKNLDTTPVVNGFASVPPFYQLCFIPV
# Chain of UniProt P37231 (P37231 whole entry, looked up): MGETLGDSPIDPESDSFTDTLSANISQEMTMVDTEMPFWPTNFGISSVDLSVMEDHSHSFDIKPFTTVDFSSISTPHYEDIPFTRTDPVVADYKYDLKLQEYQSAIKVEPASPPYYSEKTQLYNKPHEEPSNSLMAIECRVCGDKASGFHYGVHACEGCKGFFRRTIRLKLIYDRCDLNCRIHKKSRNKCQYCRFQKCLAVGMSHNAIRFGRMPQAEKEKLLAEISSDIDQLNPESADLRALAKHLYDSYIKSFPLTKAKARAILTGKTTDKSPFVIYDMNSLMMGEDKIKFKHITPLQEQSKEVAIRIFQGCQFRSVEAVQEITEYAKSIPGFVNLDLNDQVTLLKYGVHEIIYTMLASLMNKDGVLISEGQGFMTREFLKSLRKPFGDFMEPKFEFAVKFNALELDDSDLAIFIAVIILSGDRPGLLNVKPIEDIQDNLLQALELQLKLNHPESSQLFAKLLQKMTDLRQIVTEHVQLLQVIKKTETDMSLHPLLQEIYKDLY
# Chain of UniProt P11473 (P11473 whole entry, looked up): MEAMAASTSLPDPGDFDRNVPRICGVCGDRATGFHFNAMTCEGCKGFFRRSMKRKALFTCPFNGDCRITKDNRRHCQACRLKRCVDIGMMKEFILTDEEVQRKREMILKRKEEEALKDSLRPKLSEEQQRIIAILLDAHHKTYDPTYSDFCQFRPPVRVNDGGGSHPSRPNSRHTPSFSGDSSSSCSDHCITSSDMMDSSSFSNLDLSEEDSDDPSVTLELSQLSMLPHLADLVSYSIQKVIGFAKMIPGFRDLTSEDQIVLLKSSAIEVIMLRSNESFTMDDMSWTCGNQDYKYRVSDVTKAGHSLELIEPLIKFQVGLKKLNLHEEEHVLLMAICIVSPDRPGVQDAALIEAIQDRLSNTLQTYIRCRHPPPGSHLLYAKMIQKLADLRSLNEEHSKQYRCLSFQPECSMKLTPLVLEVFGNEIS
# Chain of UniProt P10635 (P10635 whole entry, looked up): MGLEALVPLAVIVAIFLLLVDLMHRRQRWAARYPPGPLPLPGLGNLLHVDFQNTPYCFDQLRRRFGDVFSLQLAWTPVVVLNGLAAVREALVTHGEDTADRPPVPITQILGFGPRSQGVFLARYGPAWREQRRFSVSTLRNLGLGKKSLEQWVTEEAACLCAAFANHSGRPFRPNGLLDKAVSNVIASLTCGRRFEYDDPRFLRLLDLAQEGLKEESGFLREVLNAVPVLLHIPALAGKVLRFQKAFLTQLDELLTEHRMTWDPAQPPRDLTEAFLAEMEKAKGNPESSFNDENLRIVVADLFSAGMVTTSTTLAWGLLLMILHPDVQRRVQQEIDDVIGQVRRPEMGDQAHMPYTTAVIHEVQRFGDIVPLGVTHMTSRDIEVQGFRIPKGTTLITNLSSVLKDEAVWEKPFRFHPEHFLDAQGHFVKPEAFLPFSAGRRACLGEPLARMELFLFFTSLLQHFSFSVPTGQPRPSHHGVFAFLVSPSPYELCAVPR
# Chain of UniProt P33261 (P33261 whole entry, looked up): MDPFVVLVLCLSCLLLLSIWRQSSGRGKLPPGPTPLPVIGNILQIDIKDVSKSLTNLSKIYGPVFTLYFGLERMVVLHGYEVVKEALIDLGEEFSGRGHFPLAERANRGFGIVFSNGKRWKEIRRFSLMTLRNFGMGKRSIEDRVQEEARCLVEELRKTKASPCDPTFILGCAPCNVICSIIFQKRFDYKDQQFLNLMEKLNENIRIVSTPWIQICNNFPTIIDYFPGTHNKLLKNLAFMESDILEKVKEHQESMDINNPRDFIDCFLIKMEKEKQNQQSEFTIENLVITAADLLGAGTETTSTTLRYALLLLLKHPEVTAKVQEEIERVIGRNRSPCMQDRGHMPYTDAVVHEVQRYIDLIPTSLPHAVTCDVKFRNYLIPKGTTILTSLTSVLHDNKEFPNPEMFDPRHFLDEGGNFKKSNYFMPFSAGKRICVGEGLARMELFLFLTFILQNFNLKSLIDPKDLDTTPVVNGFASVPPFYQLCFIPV
# Chain of UniProt Q92731 (Q92731 whole entry, looked up): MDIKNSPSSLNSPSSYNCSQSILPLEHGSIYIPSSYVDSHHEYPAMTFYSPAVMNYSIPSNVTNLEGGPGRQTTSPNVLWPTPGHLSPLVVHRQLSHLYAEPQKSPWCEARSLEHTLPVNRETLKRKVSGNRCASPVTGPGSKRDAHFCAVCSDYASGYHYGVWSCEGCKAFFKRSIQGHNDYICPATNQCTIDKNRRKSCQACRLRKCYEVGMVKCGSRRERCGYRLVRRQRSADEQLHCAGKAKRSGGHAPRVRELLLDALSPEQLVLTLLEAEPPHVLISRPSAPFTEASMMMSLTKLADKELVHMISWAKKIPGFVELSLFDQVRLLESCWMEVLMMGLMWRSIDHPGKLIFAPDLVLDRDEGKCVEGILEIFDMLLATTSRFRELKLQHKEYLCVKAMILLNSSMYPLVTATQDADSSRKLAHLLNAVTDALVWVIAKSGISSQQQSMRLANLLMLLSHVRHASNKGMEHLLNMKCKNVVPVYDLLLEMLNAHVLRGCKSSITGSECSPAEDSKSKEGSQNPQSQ
compound,measurement,setting,value
Oc1ccccc1F,Potency,[1],inactive
same,"ratio activity, negative = inhibition",[2],inconclusive: -0.99%
same,Potency,[3],inactive
same,Potency,[4],inactive
same,Potency,[5],inactive
CC(=O)N[C@@H](CCC(N)=O)C(=O)O,Potency,[6],inactive
same,"ratio activity, negative = inhibition",[2],inconclusive: 9.74%
same,Potency,[3],inactive
CCC(=O)c1cccc(Cl)c1,"ratio activity, negative = MMP loss",[7]; [19],inconclusive: 18.7% [at 95.3 µM]
same,Potency,[6],"inconclusive: 2.48 µM [rising, single point]"
same,Potency,[3],inconclusive: 0.0013 µM
same,Potency,[8],"inconclusive: 7.84 µM [rising, full curve]"
COc1ccc2c(c1)c(CC(=O)OCC(=O)O)c(C)n2C(=O)c1ccc(Cl)cc1,Potency,[7]; [19],"inconclusive: 9.44 µM [activator, full curve]"
same,"activity change, negative = inhibition",[1],inconclusive: -27.3%
same,Potency,[2],inconclusive: 7.5 µM [full curve]
same,Potency,[9],"inconclusive: 21.3 µM [activator, single point]"
same,Potency,[3],inactive
same,Potency,[10],"inconclusive: 0.237 µM [rising, partial curve]"
same,Potency,[11],"inconclusive: 21.9 µM [inhibitor, partial curve]"
NC(=O)NC1N=C([O][Al])NC1=O (centres undefined),activation,[12],inconclusive: -9.6%
same,Potency,[3],inactive
same,Potency,[10],"inconclusive: 3.35 µM [cytotoxic, single point]"
same,Potency,[8],inactive
same,Potency,[13],"inconclusive: 6.17 µM [inhibitor, full curve, poor fit]"
CCCOC(=O)CC,Potency,[7]; [19],"inconclusive: 34.3 µM [activator, partial curve, poor fit]"
same,Potency,[14],inactive
same,"activity change, negative = inhibition",[9],inconclusive: 11.2%
same,Potency,[15],inactive
same,Potency,[8],"inconclusive: 27.2 µM [cytotoxic, single point]"
NC(=O)Cc1cccc2ccccc12,"ratio activity, negative = MMP loss",[7]; [19],inconclusive: -10.5%
same,activation,[12],inconclusive: 19.7%
same,Potency,[15],inactive
same,Potency,[16],inactive
same,Potency,[17],inactive
same,Potency,[8],inactive
same,Potency,[18],"inconclusive: 39.9 µM [inhibitor, partial curve, poor fit]"
NCCNCCN,Potency,[6],inactive
same,"activity change, negative = inhibition",[9],inconclusive: 20%
same,Potency,[3],"inconclusive: 55.1 µM [cytotoxic, partial curve, poor fit]"
same,"activity change, negative = inhibition",[17],inconclusive: 0.427%
same,Potency,[13],"active: 63.5 µM and inconclusive: 39.9 µM [inhibitor, partial curve]"
same,Potency,[5],"inconclusive: 79.9 µM [inhibitor, single point]"
O=[N+]([O-])c1cc([N+](=O)[O-])c2ccc(S(=O)(=O)O)cc2c1O,Potency,[6],"inconclusive: 76.5 µM [cytotoxic, single point]"
same,Potency,[3],inactive
CCCCCCCCCCCCC1CO1 (centres undefined),Potency,[7]; [19],inactive
same,Potency,[2],inactive
same,Potency,[3],inactive
same,Potency,[8],"inconclusive: 4.33 µM [rising, full curve]"
same,Potency,[18],inactive
CC(=O)OC1CC(C)OC(C)O1 (centres undefined),"ratio activity, negative = MMP loss",[7]; at 83.2 µM (top of the series),inactive: -4.33%
same,"ratio activity, negative = MMP loss",[7]; [19],inconclusive: 0.791%
same,Potency,[1],inactive
same,Potency,[14],"inconclusive: 38.6 µM [rising, partial curve, poor fit]"
same,Potency,[6],"inconclusive: 0.545 µM [rising, single point]"
same,Potency,[12],inconclusive: 38.6 µM
same,Potency,[15],inactive
same,Potency,[11],"inconclusive: 70.1 µM [inhibitor, partial curve, poor fit] and inactive"
CCCCC(CC)COC(=O)COc1ccc(Cl)cc1C (centres undefined),Potency,[7]; [19],"inconclusive: 1.22 µM [inhibitor, single point]"
same,Potency,[14],"inconclusive: 77 µM [cytotoxic, single point]"
same,Potency,[6],inactive
same,"ratio activity, negative = inhibition",[2],inconclusive: 13.4%
same,Potency,[12],inactive
same,Potency,[3],inactive
same,Potency,[4],inactive
same,Potency,[10],inactive
same,Potency,[11],inconclusive: 11.2 µM [inhibitor]
C1C2OC2C2C1C1CC2C2OC12 (centres undefined),Potency,[7]; [19],inactive
same,"activity change, negative = inhibition",[1],inconclusive: 36.2% [at 78.9 µM]
same,Potency,[6],inconclusive: 27.4 µM
same,"ratio activity, negative = inhibition",[2],inconclusive: 9.66% [at 81.1 µM]
same,"activity change, negative = inhibition",[9],inconclusive: -1.09% [at 78.8 µM]
same,Potency,[3],"inconclusive: 22 µM [rising, partial curve, poor fit]"
same,Potency,[11],"inconclusive: 80 µM [inhibitor, partial curve]"
COc1ccc2c(c1)CCCC2=O,Potency,[2],inactive
same,Potency,[12],inactive
same,Potency,[9],inactive
same,Potency,[3],inactive
CCCCCCCCC(CO)CCCCCC (centres undefined),"ratio activity, negative = MMP loss",[7]; [19],inconclusive: -0.733%
same,"activity change, negative = inhibition",[1],inconclusive: -14.2%
same,Potency,[15],"inconclusive: 68.6 µM [cytotoxic, single point]"
same,Potency,[18],"inconclusive: 25.2 µM [inhibitor, full curve]"
CC(=O)CCC=C(C)C,"ratio activity, negative = MMP loss",[7]; [19],inconclusive: 11% [at 95.3 µM]
same,Potency,[1],inactive
same,Potency,[6],"inconclusive: 87.6 µM [rising, single point]"
same,activation,[12],inconclusive: -1.52% [at 94.8 µM]
same,Potency,[3],inactive
same,Potency,[16],"inconclusive: 0.62 µM [inhibitor, single point]"
same,Potency,[10],inactive
same,Potency,[18],"inconclusive: 64.2 µM [inhibitor, partial curve, poor fit]"
